For 167 variants, self-cleavage results are on record in the RNAGym collection of RNA variant scans (doi:10.7554/elife.90254).

Read counts are not given, so values of variants with three or more changes are uncertain.

The chains are these.
B1: OR4K15 (parent)
chain: GUUAACGGUCAUAGGCCAUGGAAACUAGGAGCACCAUUUCGCUGCCAGUGAAGAAAUGAACAAAGAAAAUCUGGGCCAGGCAGGCAUCAAAAGAAAUAGUCUUGCGCUCAACCAGAAAGUCUGUAAUCAUUUUAAGGGUA

The data set covers variants of B1. Kind of data set: self-cleavage, relative activity (ratio to wild type); higher = more cleavage; in vitro, sequencing; the parent is a self-cleaving ribozyme.
On to C35U A67G A78G, for which the self-cleavage is 0.09.
A36U A54G U72C A96G U122C: the self-cleavage was found to be 0.04.
Under U37C U38C A110G A117G A140G stands 0.18; under U37G A63U A68U A96G, 2.11; under A33U A54G A96G, 1.11.
For U37C U38C A63G C128U the value was 0.76; for U37C A69G U87C U127A, 1.15; for A36G A59G U139C, 1.14.
Regarding U37C A90G U103C A118U, the self-cleavage is 0.12.
Under U37C C40U A94G U131C stands 0.78.
As to U37C A64G A91G A111G A116G, the self-cleavage was 0.02.
For the variant A36G U49C A68G A86G A89G A117G, the self-cleavage worked out at 1.36.
In the case of C34U A52G A60G, the self-cleavage worked out at 1.42.
On to U37C A52G A54G A56G A90G A118G A135U, for which the self-cleavage was 0.21.
For the variant A33U U72A A82G U97A, the self-cleavage came to 0.2.
Under C34G C61A A63G A95G stands 1.3; under A33U A91G A94G A110G A134U, 0.1.
U37C A55G U100A: the self-cleavage amounted to 1.13.
For the variant A36U A64U A89G, the self-cleavage was determined as 1.97.
With A36U U37C A111G U132A, the self-cleavage came to 0.02.
Under A33U A96G A129G stands 2.25.
As to A36C U87C U131C, the self-cleavage turned out to be 0.77.
Take U37C A110U A111U: the self-cleavage amounted to 0.01.
Consider U37C A59G A66G A129G, for which the self-cleavage came to 1.07.
Take A33U A92G A125G: the self-cleavage stood at 1.05.
For C35G U87A A117U the value was 0.46.
Take A33U U49C A51G A90G: the self-cleavage was 1.5.
On to A36G U49A A51G, for which the self-cleavage amounted to 0.24.
Take U37C U49C U108A A126G U131C G138U: the self-cleavage was 0.
Consider A33U A52U A66G, for which the self-cleavage is 1.31.
On to U37C U39C A60G A91G, for which the self-cleavage stood at 0.73.
Under C35U U39A U49C A125G stands 0.31; under U37C U39A A51U A62U, 1.26.
As for U37C A47U U72C A78U C105A, the self-cleavage was determined as 0.02.
With A36G A54G A110G U132C, the self-cleavage was 0.45.
For A33U U39C A82U, the self-cleavage worked out at 0.23.
With A36U A62U A67G A90G, the self-cleavage is 1.11.
For A33U A82U U139C the value was 0.2.
As for U37C A54G A82G, the self-cleavage came to 1.23.
Take C34G A51G A55G: the self-cleavage was determined as 2.23.
In the case of A36U U102A U108A, the self-cleavage is 0.01.
Take A36G A51G A92G A95G: the self-cleavage was found to be 3.
For A36G A52U A59G the value was 1.53; for A36U U37C U43A U100C, 2.06.
On to A36G U37C U39A A118U, for which the self-cleavage turned out to be 0.55.
In the case of U37C A51G A82G, the self-cleavage is 0.44.
A36U A69G A118G A134G A135G: the self-cleavage is 0.74.
As for A33U G50A U130C, the self-cleavage came to 1.17.
For U37C U39C C77G the value was 0.03; for U37C A47C A54G A82U, 0.17.
As to A33U U38C A60U A116G, the self-cleavage is 1.16.
Turning to U37G A114G U120C A126U, the self-cleavage is 0.19.
Take A33U A91G U139A: the self-cleavage was determined as 1.19.
With U37C A94G G119A, the self-cleavage was 1.84.
With U37A U38C A82U A118G U133A, the self-cleavage was 0.18.
Regarding U37C A52U A96G, the self-cleavage came out at 0.95.
For C34U A59G A68G A95U A98G the value was 0.19; for C34U A54G A56G C88A, 1.85.
As to A36U U38C U130C, the self-cleavage amounted to 1.61.
Under A36G C45U A47G A52G A59G A67G A68G U127C U131C stands 1.46; under A36G A116G U132A, 0.64; under A36G A110G U120A, 0.15.
Regarding U37C U39C U49C U100A C105U, the self-cleavage amounted to 0.06.
On to A36G A95G U103C U124C, for which the self-cleavage turned out to be 1.34.
Take A36U U43C A82G: the self-cleavage was 1.11.
For U37C U43A A95G the value was 2.54; for U37A A66G A94G, 1.88.
For A36U U72A A89U the value was 0; for C35U A64G G84U, 0.25.
Turning to U37C U87C A92G, the self-cleavage turned out to be 1.67.
With A33U A78G A82G, the self-cleavage was 0.24.
Regarding U37C A67G U97C A114G, the self-cleavage was found to be 0.24.
As to U37C U43C G58U A59G U102C, the self-cleavage was found to be 2.39.
Turning to A33U A92G U130C, the self-cleavage worked out at 1.43.
As to A36G A52G A60G A90G U139A, the self-cleavage amounted to 0.23.
A36U A59G U72A A92G U100C U122C: the self-cleavage amounted to 0.21.
Turning to U37C A69G A116U U124C, the self-cleavage is 0.2.
Regarding U37G U43C C45U A118G, the self-cleavage stood at 0.85.
Consider C35A A82G U102C A114G, for which the self-cleavage is 0.76.
As for A33U U108A U124C U132C, the self-cleavage was 0.
As for U37C U49G A68G A116G, the self-cleavage came to 0.81.
Under U37C A55G U87C A91G U100A U103C U127C stands 0.02; under A36G U38C A63G A66G, 1.57.
Take A36G A66G A92G U100C A110G A129G: the self-cleavage stood at 0.17.
As for A36C G65A A78U A89C U97C A114G A129G, the self-cleavage is 0.01.
For the variant A33U U70C A89U, the self-cleavage was 0.97.
Consider U37C A51G U57C U72G, for which the self-cleavage stood at 0.47.
A33U A60G A86G: the self-cleavage turned out to be 0.84.
U37C U57A A62G G119A U122C: the self-cleavage was 0.73.
Under A36G A82C U122C A126G stands 0.02.
As for U37C A89U A95G U102C, the self-cleavage amounted to 2.76.
Consider A36G U37C A63U A117G U122C, for which the self-cleavage was 2.3.
Regarding A33U A54G A82U A126G, the self-cleavage came out at 0.04.
As to A36G A55U G58U, the self-cleavage stood at 0.62.
In the case of U37C A91G U132C, the self-cleavage turned out to be 0.92.
As for A36G U39A U49C G93U U130C, the self-cleavage was found to be 0.79.
A36G G41A A118U U124C: the self-cleavage came out at 0.25.
For the variant A36G G44A A92G, the self-cleavage worked out at 0.81.
In the case of C34U A47G U49C A52G, the self-cleavage is 1.28.
U37C A47U U122A U130A: the self-cleavage came to 0.52.
In the case of U37C A54G U103C U120C, the self-cleavage was determined as 0.94.
For U37C A54G U97G U108A C109U the value was 0.01.
On to A33U A54G A68G, for which the self-cleavage came out at 1.
Regarding A36U U38C A86U U122A U127A, the self-cleavage was 1.34.
In the case of U37C A62C A69G A114G A116G U122C, the self-cleavage stood at 0.01.
As for A36G A66G A94G A111G, the self-cleavage turned out to be 0.04.
Turning to A33U A90G U130A, the self-cleavage stood at 0.7.
For C35U U37C U97C U130C the value was 0.51; for A36U A67G U102C, 1.92.
For the variant C34U U87C A98G G99A, the self-cleavage was 0.33.
For the variant A36G A47G A62G A117G, the self-cleavage was 0.84.
As for U37C A47U A63G C77U A116G, the self-cleavage was 1.06.
For U37A A68G A82G A96G A117G U130C the value was 0.24; for U37C G41A A111G A135G, 0.02; for U37A A89G A111G, 0.03.
For the variant U37C U70C U139C, the self-cleavage stood at 0.96.
With A36G A51G A60G, the self-cleavage turned out to be 0.57.
On to A36U A117G U139C, for which the self-cleavage was 2.05.
Consider U37C A67G U72C U130C, for which the self-cleavage was found to be 0.
As to U37A U43C U72C, the self-cleavage came to 0.15.
In the case of A36G A59U C107U, the self-cleavage came to 0.
On to U37C A59U A96G, for which the self-cleavage was found to be 2.05.
In the case of A36U A52G A66G, the self-cleavage is 1.49.
For A36G A69G U70C A96G the value was 0.31; for U37C A67U A86U, 2.52; for A36U A55G A59G U87C A90G, 0.12.
Under U37C A47G A59G A63G stands 1.28.
With U37C U87C U97C U102C, the self-cleavage is 2.12.
Regarding A36U A90G A92U A95G, the self-cleavage was 0.34.
As for U37C U49C U87C A96G, the self-cleavage was found to be 1.69.
For the variant A36G U37C U132G, the self-cleavage stood at 1.81.
Turning to A36G A47G A114G, the self-cleavage came out at 0.25.
Consider A36G A86U A94C A114G G119A, for which the self-cleavage is 0.92.
As to U37A U43C A111C A117G, the self-cleavage turned out to be 0.01.
Turning to U37C A54G U127C A129G, the self-cleavage was 0.62.
Under U37C A92G U132C A140U stands 1.56.
Consider U37C G74A C81U, for which the self-cleavage was 0.18.
Consider A36G U38C A90G A117U, for which the self-cleavage turned out to be 1.28.
Under A36G A59G A134G stands 0.47; under A36G A51U A55G A56U U130C, 0.81; under A33U U37C U43C A68G A116G, 1.29.
With A36C A64G U100C A117G, the self-cleavage came out at 2.65.
With C35A A95G A114G, the self-cleavage was 0.84.
As for A36G A63G A95G A110U, the self-cleavage was found to be 1.54.
As to U37C A90G U97C A114G, the self-cleavage was determined as 0.14.
For U37C U49C A66G C77U A129G, the self-cleavage was determined as 1.8.
A36G A54G A64G A129G: the self-cleavage came out at 2.1.
As for C34A A60G A135G, the self-cleavage was found to be 1.56.
Consider U37C A52G A66G A78U, for which the self-cleavage worked out at 0.46.
For the variant U37C A66G A96U, the self-cleavage came out at 1.55.
Consider A33U A64G A78G A82G, for which the self-cleavage stood at 0.16.
Regarding A33U A64G U127C, the self-cleavage is 1.1.
For C34A G104A U122C, the self-cleavage amounted to 0.
As to A33U U49A A114U A125G, the self-cleavage worked out at 0.01.
For U37C U38A A96G A111C the value was 0; for A36G A114C U139C, 0.02; for C35A A66U A98G G119U, 0.87.
Regarding A36C A82G U133A G136U, the self-cleavage was determined as 0.47.
For C34U U72C A78G A129G, the self-cleavage was 0.14.
Under U37C U49C A89G stands 1.12.
Consider C35U A116G A125G U127C, for which the self-cleavage came out at 0.02.
Under A36G U43C A64G U100G stands 1.52; under U37C A95G U108C, 0.02.
Under A33U U37A A62G stands 1.31; under U37C U57C A89G, 1.09; under U37C A62G U72C, 0.28.
Take U37C A66G U72A A111G: the self-cleavage was 0.02.
